Out of some 310,000 compounds screened, about 14,000 (4.5%) showed an effect of 50% or more. Effects have a minus sign here. The list shows a part of the results.
Target: human ether-à-go-go-related gene (hERG) potassium channel (human, UniProt Q12809)
Assay: primary screen, population patch clamp on CHO cells stably expressing hERG
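Also: peak tail current of the secondary pulse compared with the same well before compound.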

Chain of human ether-à-go-go-related gene (hERG) potassium channel (Q12809 whole entry, looked up): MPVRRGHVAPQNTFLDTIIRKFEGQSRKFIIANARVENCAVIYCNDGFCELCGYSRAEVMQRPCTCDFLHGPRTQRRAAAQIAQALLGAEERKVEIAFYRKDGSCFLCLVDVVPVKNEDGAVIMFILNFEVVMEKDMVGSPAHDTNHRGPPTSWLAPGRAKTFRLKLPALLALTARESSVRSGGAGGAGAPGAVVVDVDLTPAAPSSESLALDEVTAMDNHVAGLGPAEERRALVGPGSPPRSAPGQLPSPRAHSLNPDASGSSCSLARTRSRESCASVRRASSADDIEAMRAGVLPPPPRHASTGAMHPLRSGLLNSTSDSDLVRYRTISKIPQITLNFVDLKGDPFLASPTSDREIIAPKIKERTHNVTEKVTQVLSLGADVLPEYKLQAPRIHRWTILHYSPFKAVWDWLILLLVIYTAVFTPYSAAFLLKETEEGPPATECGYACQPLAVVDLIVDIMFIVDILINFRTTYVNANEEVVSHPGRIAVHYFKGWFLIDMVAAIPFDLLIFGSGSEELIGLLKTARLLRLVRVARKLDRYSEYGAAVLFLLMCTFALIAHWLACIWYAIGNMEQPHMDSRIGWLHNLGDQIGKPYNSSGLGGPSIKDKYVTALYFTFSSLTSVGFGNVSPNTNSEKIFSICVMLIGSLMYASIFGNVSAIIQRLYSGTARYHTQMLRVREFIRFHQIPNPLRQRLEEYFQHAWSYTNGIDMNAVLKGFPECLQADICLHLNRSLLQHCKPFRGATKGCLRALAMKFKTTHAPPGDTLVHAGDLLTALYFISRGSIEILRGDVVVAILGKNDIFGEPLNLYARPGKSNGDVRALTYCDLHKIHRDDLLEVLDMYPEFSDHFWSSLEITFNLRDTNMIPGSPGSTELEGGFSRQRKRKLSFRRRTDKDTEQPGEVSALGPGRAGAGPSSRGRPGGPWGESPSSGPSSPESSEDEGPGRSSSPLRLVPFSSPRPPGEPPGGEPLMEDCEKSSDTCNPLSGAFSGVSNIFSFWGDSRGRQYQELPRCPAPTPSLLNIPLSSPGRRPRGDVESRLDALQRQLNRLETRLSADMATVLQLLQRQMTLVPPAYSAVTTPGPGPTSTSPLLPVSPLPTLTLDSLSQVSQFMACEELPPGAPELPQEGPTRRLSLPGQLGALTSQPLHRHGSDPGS

SMILES	hERG current change (%, negative = inhibition) at 10uM [%]
CCOc1ccc(N(CC(=O)NCc2ccc(F)cc2)S(=O)(=O)c2c(C)noc2C)cc1	-4.62
Cc1cc(/C=C(\C#N)C(=O)NCc2ccco2)c(C)n1-c1cccnc1	-23.2
Cc1cccc(C2N(c3ccc(F)cc3)C(=O)C3CCCN32)c1 (centres unmarked)	-12.3
COc1ccc(Cl)c2c1[nH]c1nc(SCc3ccccn3)nnc12	21.8
Cc1ccc(NC2=CC(=O)C(=O)c3ccccc32)cc1	-5.46
CCCN1CCC(=O)N([C@H](CSc2ccccc2)CC(C)C)CC1	-66.4
Cc1ccc([N+](=O)[O-])cc1N=Cc1ccc(Br)s1	-9.5
Cc1nc(S(=O)(=O)c2ccc(Cl)cc2Cl)nc2c1CCC2	3.48
CCCCOC(=O)c1ccc(NC(=O)c2c(OC)cccc2OC)cc1	3.8
Nc1nonc1-n1nnc(C(=O)N/N=C/c2ccco2)c1CSc1ccccc1	14
COc1cc(C(=O)NCc2nnc(SCC(=O)Nc3ccc4c(c3)OCO4)o2)cc(OC)c1OC	29.5
c1ccc(NC2=NCCN2CC2CCCCCC2)cc1	-11.1
COc1ccc2nc(C)[nH]c(=O)c2c1	9.19
Cc1ccc(OCc2nc(-c3cccnc3)no2)cc1C	4.82
CC(C)CC(=O)NC1(C(F)(F)F)C(=O)N(Cc2ccccc2)C2=C1C(=O)CC(C)(C)C2 (centres unmarked)	-6.75
COc1ccc(OC)c(S(=O)(=O)N2CCC3(CC2)OCCN3S(=O)(=O)c2cccs2)c1	-42.8
N#Cc1c(NC(=O)c2ccc(N3CCOCC3)c([N+](=O)[O-])c2)sc2c1CCCC2	2.29
CN1CCN(C(=O)CCS(=O)(=O)c2cc3c(cc2Cl)NC(=O)CO3)CC1	9.8
CC(=O)Nc1ccccc1/C=C/c1ccc2c(C)cc(C)c(O)c2n1	16.8

SMILES	hERG current change (%, negative = inhibition) at 10uM [%]
Cn1cccc1C(C#N)c1ncc(C(F)(F)F)cc1Cl (centres unmarked)	-2.06
CCc1ccc(CNC(=O)CCS(=O)(=O)Cc2ccccc2F)cc1	10.8
O=C(Nc1ccc(F)cc1)c1oc2ccccc2c1NC(=O)C1CC1	-1.77
COc1ccc(OC)c(-n2c(O)c(/C=C3\C=Nc4ccccc43)c(=O)[nH]c2=O)c1	7.03
CCCC(=O)Nc1ccc(C(=O)Nc2nnc(COCC)s2)cc1	16.8
O=C(Nc1ccc(O)cc1)c1cc2n(n1)C(C(F)(F)F)CC(c1ccco1)N2 (centres unmarked)	-5.45
Cc1nnc(NC(=O)CSc2nnc(Cc3cccn3C)n2CCc2ccccc2)s1	-13.5
CCOC(=O)C1CCCN(C(=O)c2cc(-c3ccc(C)cc3)on2)C1 (centres unmarked)	-44.6
COc1ccccc1OCCSc1nc2ccccc2n1CCC(=O)O	13.2
COc1ccc([N+](=O)[O-])cc1N(CC(=O)NCCSc1ccc(C)cc1)S(C)(=O)=O	-25.3
COc1ccc(NC(=O)CN(C)CC(=O)Nc2ccc(Cl)c(S(=O)(=O)N(C)C)c2)cc1	-20.7
CC1CCCN(C(=O)C2CCN(S(=O)(=O)c3cccc4nonc34)CC2)C1 (centres unmarked)	3.61
Cc1nc(SCc2nc3ccccc3[nH]2)c2oc3ccccc3c2n1	1.04
CC(=O)c1cc(-c2ccc(F)cc2)n(CC(=O)NCc2cccs2)c1C	-5.31
O=C(Cc1ccccc1Cl)NCc1cccnc1	19.3
Cc1nn(CC(=O)N2CCCCC2)c(=O)c2nn(-c3ccccc3)c(C)c12	19.2
CC1CN(S(=O)(=O)c2ccc(C(=O)Nc3nnc(-c4ccc5c(c4)CCCC5)o3)cc2)CC(C)O1 (centres unmarked)	0.158
Nc1cc(C(F)(F)F)ccc1C(=O)O	0.434
COc1cccc(CN2CCN(C(=O)c3cccc(OC)c3)CC2)c1.O=C(O)C(=O)O	9.62

SMILES	hERG current change (%, negative = inhibition) at 10uM [%]
CC(OC(=O)c1ccco1)C(=O)NC1CCCCC1 (centres unmarked)	-3.72
Cc1onc(-c2ccccc2)c1C(=O)N1CCC(C)CC1	3.2
O=C(Nc1ncccc1O)c1ccc2ccccc2c1	17
Cc1cccc(C)c1OCc1cc(C(=O)N2CCCC2c2nonc2C)no1 (centres unmarked)	2.3
COc1ccc(S(=O)(=O)NCc2ccncc2)cc1NC(=O)c1ccccc1C	-36.6
COc1ccc(C)cc1NC(=O)c1nn(C)c(C(=O)Nc2cc(C)ccc2OC)c1[N+](=O)[O-]	1.17
O=C(Nc1ccc(NC(=O)c2ccccc2F)cn1)c1ccco1	8.52
CN(C)Cc1c(C(=O)N/N=C/c2cccc(OCc3ccc(F)cc3)c2)nnn1-c1nonc1N	19.7
O=Nc1c(O)n(Cc2ccccc2)c2ccccc12	-18.7
OCCC1CN(Cc2ccon2)CCN1Cc1ccccc1 (centres unmarked)	9.42
O=C(CSc1ccccc1)NCCCN1CCOCC1	6.79
Cc1ccsc1C(=O)OCC(=O)Nc1cccc(S(=O)(=O)N2CCOCC2)c1	-45.1
CCOC(=O)c1ccc(NC(=O)c2nc[nH]c2C(=O)NC)cc1	16.6
Cc1ccc(CNC(=O)c2ccc([N+](=O)[O-])o2)cc1	-1.48
Nc1ccc(C(=O)Nc2nccs2)cc1	22.4
CCOc1ccc(OCC)c(NC(=O)CN2CCN(C(=O)c3ccco3)CC2)c1	-59
CCOC(=O)c1c(NC(=O)c2cccnc2)sc(C)c1C	-12.1
CN(C)c1oc(/C=C/c2cccs2)nc1S(=O)(=O)c1ccccc1	-2.69

— PMC4336329 (PLoS ONE, 2015)
